One experiment concerns Rhinovirus. Put plainly: microbe, parasite or virus in culture. It counts as cell-based. The conditions noted are these: Enterovirus.
The test system of a further experiment is Coxsackie B3. Description: microbe, parasite or virus in culture. As to conditions: Enterovirus B, B3, read-out: Coxsackie B3 EC50.
The next experiment relates to Coxsackie B1. Description: organism not typed. The conditions noted are these: read-out: Coxsackie B1 EC50.
Where [1] appears, read: HRV14, read-out: Rhino HRV14 EC50.
Where [2] appears, read: HRV21, read-out: Rhino HRV21 EC50.
[3] abbreviates: HRV71, read-out: Rhino HRV71 EC50.

In brackets after ≈: the same amount, converted by molar mass. Where two headings read alike, the source gives them in different places. Where only a bound is given, the exact number is not on record here.

As for `CC(C)c1ccc2c(c1)OC1(O)c3cccc(N)c3C(=O)C21NC(=O)c1cnccn1` (centres unmarked) [Example 200, N-(1-Amino-4b-hydroxy-7-isopropyl-10-oxo-9b,10-dihydro-4bH-indeno[1,2-b]benzofuran-9b-yl) pyrazine-2-carboxamide], the 50% effective concentration (EC50) in the experiment with Rhinovirus (setting [1]) was under 0.01 µg/mL; with Rhinovirus (setting [2]), under 1 µg/mL; with Rhinovirus (setting [3]), under 1 µg/mL; with Coxsackie B3 it was under 0.01 µg/mL; in the experiment with Coxsackie B1 it was under 0.01 µg/mL.

As to `CC(C)c1ccc2c(c1)OC1(O)c3cccc(N)c3C(=O)C21NC(=O)c1ccco1` (centres unmarked) [Example 201, N-(1-Amino-4b-hydroxy-7-isopropyl-10-oxo-9b,10-dihydro-4bH-indeno[1,2-b]benzofuran-9b-yl)furane-2-carboxamide], the EC50 in the experiment on Rhinovirus (setting [1]) is under 0.01 µg/mL; in the experiment on Rhinovirus (setting [2]), under 1 µg/mL; in the experiment on Rhinovirus (setting [3]) it was under 1 µg/mL; in the experiment on Coxsackie B3, under 0.01 µg/mL; in the experiment with Coxsackie B1 it was under 0.01 µg/mL.

On to `CC(C)c1ccc2c(c1)OC1(O)c3cccc(N)c3C(=O)C21NC(=O)c1cccc2cccnc12` (centres unmarked) [Example 202, N-(1-Amino-4b-hydroxy-7-isopropyl-10-oxo-9b,10-dihydro-4bH-indeno[1,2-b]benzofuran-9b-yl)quinoline-8-carboxamide], for which the EC50 with Rhinovirus (setting [1]), in the experiment with Coxsackie B3 and with Coxsackie B1 was under 0.01 µg/mL throughout.

On to `CC(C)c1ccc2c(c1)OC1(O)c3cccc(N)c3C(=O)C21NC(=O)c1ccc2ncccc2c1` (centres unmarked) [Example 203], for which the EC50 is under 0.01 µg/mL in the experiment on Rhinovirus (setting [1]); under 1 µg/mL in the experiment with Rhinovirus (setting [2]); under 1 µg/mL in the experiment with Rhinovirus (setting [3]); under 0.01 µg/mL with Coxsackie B3; under 0.01 µg/mL with Coxsackie B1.

`CC(C)c1ccc2c(c1)OC1(O)c3cccc(N)c3C(=O)C21NC(=O)c1cc2ccccc2o1` (centres unmarked) [Example 204, N-(1-Amino-4b-hydroxy-7-isopropyl-10-oxo-9b,10-dihydro-4bH-benzo[d]indeno[1,2-b]furan-9b-yl)benzofurane-2-carboxamide]: the 50% effective concentration (EC50) with Rhinovirus (setting [1]) is under 0.01 µg/mL; in the experiment with Rhinovirus (setting [3]) it was under 1 µg/mL; in the experiment on Coxsackie B3, under 0.01 µg/mL; with Coxsackie B1, under 0.01 µg/mL.

In the case of `Cc1c(C(=O)NC23C(=O)c4c(N)cccc4C2(O)Oc2cc(C(C)C)ccc23)oc2ccccc12` (centres unmarked) [Example 205], the EC50 in the experiment with Rhinovirus (setting [1]), in the experiment with Coxsackie B3 and in the experiment on Coxsackie B1 was under 0.01 µg/mL in each case.

Turning to `Cc1ncsc1C(=O)NC12C(=O)c3c(N)cccc3C1(O)Oc1cc(C(C)C)ccc12` (centres unmarked) [Example 206, N-(1-Amino-4b-hydroxy-7-isopropyl-10-oxo-9b,10-dihydro-4bH-indeno[1,2-b]benzofuran-9b-yl)-4-methylthiazole-5-carboxamide], the EC50 in the experiment with Rhinovirus (setting [1]) is under 0.01 µg/mL; in the experiment on Rhinovirus (setting [2]) it was under 1 µg/mL; in the experiment on Rhinovirus (setting [3]) it was under 1 µg/mL; in the experiment with Coxsackie B3, under 0.01 µg/mL; in the experiment with Coxsackie B1, under 0.01 µg/mL.

With `CC(C)c1ccc2c(c1)OC1(O)c3cccc(N)c3C(=O)C21NC(=O)[C@@H]1CSC(=O)N1` (stereo partly drawn) [Example 207, (4R)—N-(1-amino-4b-hydroxy-7-isopropyl-10-oxo-9b,10-dihydro-4bH-indeno[1,2-b]benzofuran-9b-yl)-2-oxothiazolidine-4-carboxamide], the 50% effective concentration (EC50) in the experiment on Rhinovirus (setting [1]) is under 0.01 µg/mL; with Rhinovirus (setting [2]), under 1 µg/mL; in the experiment with Coxsackie B3 it was under 0.01 µg/mL; in the experiment with Coxsackie B1, under 0.01 µg/mL.

Turning to `CC(C)c1ccc2c(c1)OC1(O)c3ccccc3C(=O)C21NC(=O)c1cc2ccccc2[nH]1` (centres unmarked) [Example 208, N-(4b-hydroxy-7-isopropyl-10-oxo-9b,10-dihydro-4bH-indeno[1,2-b]benzofuran-9b-yl)-1H-indole-2-carboxamide], the EC50 with Rhinovirus (setting [1]), in the experiment with Coxsackie B3 and in the experiment on Coxsackie B1 was under 0.01 µg/mL in each case.

As for `CC(C)c1ccc2c(c1)OC1(O)c3ccccc3C(=O)C21NC(=O)c1c[nH]c2ccccc12` (centres unmarked) [Example 209, N-(4b-Hydroxy-7-isopropyl-10-oxo-9b,10-dihydro-4bH-indeno[1,2-b]benzofuran-9b-yl)-1H-indole-3-carboxamide], the EC50 in the experiment on Rhinovirus (setting [1]), with Coxsackie B3 and in the experiment with Coxsackie B1 was under 0.01 µg/mL throughout.

For `CC(C)c1ccc2c(c1)OC1(O)c3ccccc3C(=O)C21NC(=O)c1cnn(-c2ccccc2)c1C(F)(F)F` (centres unmarked) [Example 211], the EC50 in the experiment with Rhinovirus (setting [1]) was 0.039 µg/mL (≈ 0.0731 µM); with Coxsackie B3, under 0.01 µg/mL; in the experiment on Coxsackie B1, under 0.01 µg/mL.

With `CC(C)c1ccc2c(c1)OC1(O)c3cccc(N)c3C(=O)C21NC(=O)c1n[nH]c2ccccc12` (centres unmarked) [Example 212, N-(1-Amino-4b-hydroxy-7-isopropyl-10-oxo-9b,10-dihydro-4bH-benzo[d]indeno[1,2-b]furan-9b-yl)-1H-indazole-3-carboxamide], the EC50 is under 0.01 µg/mL with Rhinovirus (setting [1]), under 1 µg/mL with Rhinovirus (setting [3]), under 0.01 µg/mL in the experiment with Coxsackie B3 and under 0.01 µg/mL with Coxsackie B1.

Take `CC(C)c1ccc2c(c1)OC1(O)c3cccc(N)c3C(=O)C21NC(=O)Cn1cnnn1` (centres unmarked) [Example 213, N-(1-Amino-4b-hydroxy-7-isopropyl-10-oxo-9b,10-dihydro-4bH-benzo[d]indeno[1,2-b]furan-9b-yl)-2-(1H-tetrazol-1-yl)acetamide]: the EC50 in the experiment with Rhinovirus (setting [1]) is under 0.01 µg/mL; in the experiment on Rhinovirus (setting [2]), under 1 µg/mL; in the experiment with Rhinovirus (setting [3]), under 1 µg/mL; with Coxsackie B3 it was under 0.01 µg/mL; in the experiment with Coxsackie B1, under 0.01 µg/mL.

Take `CC(C)c1ccc2c(c1)OC1(O)c3cccc(N)c3C(=O)C21NC(=O)c1cnc2ccccc2c1` (centres unmarked) [Example 214, N-(1-Amino-4b-hydroxy-7-isopropyl-10-oxo-9b,10-dihydro-4bH-indeno[1,2-b]benzofuran-9b-yl)quinoline-3-carboxamide]: the EC50 in the experiment with Rhinovirus (setting [1]) is under 0.01 µg/mL; with Rhinovirus (setting [2]), under 1 µg/mL; with Rhinovirus (setting [3]) it was under 1 µg/mL; with Coxsackie B3 it was under 0.01 µg/mL; in the experiment on Coxsackie B1 it was under 0.01 µg/mL.

On to `CC(C)c1ccc2c(c1)OC1(O)c3cccc(N)c3C(=O)C21NC(=O)c1ccnc2ccccc12` (centres unmarked) [Example 215, N-(1-Amino-4b-hydroxy-7-isopropyl-10-oxo-9b,10-dihydro-4bH-indeno[1,2-b]benzofuran-9b-yl)quinoline-4-carboxamide], for which the EC50 in the experiment with Rhinovirus (setting [1]) is under 0.01 µg/mL; with Rhinovirus (setting [2]) it was under 1 µg/mL; in the experiment on Coxsackie B3 it was under 0.01 µg/mL; in the experiment with Coxsackie B1, under 0.01 µg/mL.

`COc1sccc1C(=O)NC12C(=O)c3c(N)cccc3C1(O)Oc1cc(C(C)C)ccc12` (centres unmarked) [Example 217, N-(1-Amino-4b-hydroxy-7-isopropyl-10-oxo-9b,10-dihydro-4bH-indeno[1,2-b]benzofuran-9b-yl)-2-methoxythiophene-3-carboxamide]: the EC50 with Rhinovirus (setting [1]), in the experiment with Coxsackie B3 and with Coxsackie B1 was under 0.01 µg/mL each time.

For the molecule `CC(C)c1ccc2c(c1)OC1(O)c3ccccc3C(=O)C21NC(=O)c1ccccn1` (centres unmarked) [Example 218, N-(4b-Hydroxy-7-isopropyl-10-oxo-9b,10-dihydro-4bH-indeno[1,2-b]benzofuran-9b-yl)picolinamide], the EC50 in the experiment on Rhinovirus (setting [1]), with Coxsackie B3 and in the experiment with Coxsackie B1 was under 0.01 µg/mL in each case.

With `CC(C)c1ccc2c(c1)OC1(O)c3ccccc3C(=O)C21NC(=O)c1ccncn1` (centres unmarked) [Example 219, N-(4b-Hydroxy-7-isopropyl-10-oxo-9b,10-dihydro-4bH-indeno[1,2-b]benzofuran-9b-yl)pyrimidine-4-carboxamide], the EC50 in the experiment on Rhinovirus (setting [1]), with Coxsackie B3 and in the experiment with Coxsackie B1 was under 0.01 µg/mL each time.

In the case of `CC(C)c1ccc2c(c1)OC1(O)c3ccccc3C(=O)C21NC(=O)c1ccc2[nH]nnc2c1` (centres unmarked) [Example 221, N-(4b-Hydroxy-7-isopropyl-10-oxo-9b,10-dihydro-4bH-benzo[d]indeno[1,2-b]furan-9b-yl)-1H-benzo[d][1,2,3]triazole-5-carboxamide], the EC50 in the experiment on Rhinovirus (setting [1]), in the experiment on Coxsackie B3 and in the experiment on Coxsackie B1 was under 0.01 µg/mL each time.

On to `CC(C)c1ccc2c(c1)OC1(O)c3ccccc3C(=O)C21NC(=O)c1nc[nH]n1` (centres unmarked) [Example 222, N-(4b-Hydroxy-7-isopropyl-10-oxo-9b,10-dihydro-4bH-benzo[d]indeno[1,2-b]furan-9b-yl)-1H-1,2,4-triazole-3-carboxamide], for which the EC50 in the experiment with Rhinovirus (setting [1]) is 0.037 µg/mL (≈ 0.0948 µM); in the experiment with Coxsackie B3 it was under 0.01 µg/mL; with Coxsackie B1, under 0.01 µg/mL.

Regarding `Cc1onc(-c2c(F)cccc2Cl)c1C(=O)NC12C(=O)c3c(N)cccc3C1(O)Oc1cc(C(C)C)ccc12` (centres unmarked) [Example 228, N-(1-Amino-4b-hydroxy-7-isopropyl-10-oxo-9b,10-dihydro-4bH-indeno[1,2-b]benzofuran-9b-yl)-3-(2-chloro-6-fluorophenyl)-5-methylisooxazole-4-carboxamide], the values for the EC50 in the experiment on Rhinovirus (setting [1]), in the experiment with Coxsackie B3 and in the experiment with Coxsackie B1 were 0.029 µg/mL (≈ 0.0529 µM), under 0.01 µg/mL and under 0.01 µg/mL, respectively.

Turning to `CC(C)c1ccc2c(c1)OC1(O)c3ccccc3C(=O)C21NC(=O)c1cc(-c2ccccc2)n[nH]1` (centres unmarked) [Example 229, N-(4b-hydroxy-7-isopropyl-10-oxo-9b,10-dihydro-4bH-indeno[1,2-b]benzofuran-9b-yl)-3-phenyl-1H-pyrazole-5-carboxamide], the EC50 was 0.036 µg/mL (≈ 0.0773 µM) in the experiment on Rhinovirus (setting [1]), under 0.01 µg/mL in the experiment with Coxsackie B3 and under 0.01 µg/mL in the experiment with Coxsackie B1.

As for `CC(C)c1ccc2c(c1)OC1(O)c3ccccc3C(=O)C21NC(=O)c1cccnc1` (centres unmarked) [Example 230, N-(4b-Hydroxy-7-isopropyl-10-oxo-9b,10-dihydro-4bH-indeno[1,2-b]benzofuran-9b-yl)nicotinamide], the EC50 with Rhinovirus (setting [1]) was under 0.01 µg/mL; with Rhinovirus (setting [2]), under 1 µg/mL; in the experiment with Coxsackie B3 it was under 0.01 µg/mL; in the experiment with Coxsackie B1, under 0.01 µg/mL.

For `CC(C)c1ccc2c(c1)OC1(O)c3cccc(N)c3C(=O)C21NC(=O)C(=O)c1cccs1` (centres unmarked) [Example 231, N-(1-Amino4b-hydroxy-7-isopropyl-10-oxo-9b,10-dihydro-4bH-indeno[1,2-b]benzofuran-9b-yl)-2-oxo-2-(thiophen-2-yl)acetamide], the EC50 with Rhinovirus (setting [1]), in the experiment on Coxsackie B3 and in the experiment on Coxsackie B1 was under 0.01 µg/mL throughout.

A word on the EC50: it is the midpoint of the concentration-response curve.

These data come from US9890133B2 (priority 2011, dated 2018).
